{"source": "PubChem BioAssay AID743279", "about": "(National Center for Advancing Translational Sciences (NCATS), 2014)", "note": "About 17,000 (4.7%) of roughly 360,000 compounds were called active. This list was built around the results that the source calls inconclusive (neither active nor inactive); the mix of calls is not that of the screen. Rule as the data show it: active = activity change below about -50%; inconclusive = mostly about -30% to -49%; inactive = weaker than that. % is scaled to controls: 0 for no effect and ±100 for the full control effect.", "data": [{"experiment": "qHTS for Inhibitors of Inflammasome Signaling: IL-1-beta AlphaLISA Primary Screen", "conditions": "THP-1 LPS/ATP IL-1B secretion, 16 h; at 57.5 µM, stronger effect = lower value", "how_it_was_run": "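THP-1 cells pretreated 1 hr with compounds (up to 57.5 uM final), then stimulated with LPS (250 ng/mL final) plus ATP (1.25 mM final); secreted IL-1B measured by AlphaLISA after 16 hr, decreased signal indicating inhibition.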", "values": [{"smiles": "Cc1cc(C2=NNC(=NC3CC3)SC2)c(C)n1-c1ccccc1F", "activity change": "inactive: 0%"}, {"smiles": "COc1ccccc1NC(=O)C(=O)N1N=C(C(C)C)CC1(O)C(F)(F)F", "note": "(centres undefined)", "activity change": "inactive: 8.41%"}, {"smiles": "Cc1ccc2c(c1)c1c3n2CCCNC3CCC1", "note": "(centres undefined)", "activity change": "active: -54.5%"}, {"smiles": "COc1ccc(C2CC(c3ccc(C)cc3)=NN2C(=O)c2ccccc2)cc1", "note": "(centres undefined)", "activity change": "inconclusive: -40.5%"}, {"smiles": "Cc1cc(NC(=O)C(=O)NCCN2CCN(C(=O)c3cccs3)CC2)ccc1Br", "activity change": "inconclusive: -44%"}, {"smiles": "COc1ccc(/C=C2\\CCOC2=O)cc1", "activity change": "inactive: -9.49%"}, {"smiles": "CC[C@@]1(c2ccccc2OC)ON(c2ccccc2C(F)(F)F)C1=O", "activity change": "active: -80.3%"}, {"smiles": "CCc1nc2ccc(C(=O)Nc3cc(-c4ccccc4)ccc3OC)cn2c1N(C)CCC(C)C", "activity change": "inconclusive: -38%"}, {"smiles": "ClCCn1cnc2c(SCc3ccccc3)ncnc21", "activity change": "active: -55.5%"}, {"smiles": "COc1ccc(C(CNC(=O)c2cccc(S(=O)(=O)Nc3ccc(C)cc3)c2)N2CCCCC2)cc1", "note": "(centres undefined)", "activity change": "inconclusive: -33.7%"}, {"smiles": "N#Cc1nc(Cc2cccc3ccccc23)oc1N1CCCCC1", "activity change": "inconclusive: -31.1%"}, {"smiles": "CSc1cccc(NC(=O)C2CCN(C(=O)c3ccccc3C)CC2)c1", "activity change": "inconclusive: -34.6%"}, {"smiles": "Cc1cc(C(=O)NNC(=O)c2ccc(F)cc2)c(C)s1", "activity change": "inactive: -13.8%"}, {"smiles": "COc1ccc(S(=O)(=O)N(C)C)cc1NCC(=O)Nc1ccc(Br)cc1F", "activity change": "inconclusive: -45.9%"}, {"smiles": "NC(=O)COc1c(-c2ccc(Br)o2)oc2ccccc2c1=O", "activity change": "inconclusive: -48.8%"}, {"smiles": "O=C(O)C1C2CCC(O2)C1C(=O)NCc1ccc(Cl)cc1", "note": "(centres undefined)", "activity change": "inactive: -4.68%"}, {"smiles": "Cc1ccc(C)c(S(=O)(=O)N2CCN(C(=O)CCCc3c[nH]c4ccccc34)CC2)c1", "activity change": "inconclusive: -37.6%"}, {"smiles": "c1ccc2c(N3CCCCC3)nc(N3CCCC3)nc2c1", "activity change": "inconclusive: -36.9%"}, {"smiles": "CCCc1cc(=O)oc2c3c(cc(OCC(=O)NCc4ccccn4)c12)OC(C)(C)CC3", "activity change": "inconclusive: -32.2%"}, {"smiles": "O=C(NC(NC(=S)Nc1c(Cl)cccc1Cl)C(Cl)(Cl)Cl)OCc1ccccc1", "note": "(centres undefined)", "activity change": "inconclusive: -39.8%"}, {"smiles": "CCOC(=O)C1CCN(C(=O)COC(=O)c2c(C)c(CC)nc3ccccc23)CC1", "activity change": "inactive: 19.5%"}, {"smiles": "CCn1cc(C(=O)NC(C)C23CC4CC(CC(C4)C2)C3)cn1", "note": "(centres undefined)", "activity change": "inactive: -6.67%"}, {"smiles": "O=C(c1ccco1)N1CCN(C(=O)C2CCN(S(=O)(=O)Cc3ccccc3)CC2)CC1", "activity change": "inactive: 3.27%"}, {"smiles": "Cc1ccccc1NC(=S)/C(=C(\\[O-])c1cc(C)n(Cc2ccccc2Cl)c1C)[n+]1ccccc1", "activity change": "inconclusive: -34.2%"}, {"smiles": "Cc1ccc(NS(=O)(=O)c2ccc(N3CCN(c4ccc(O)cc4)CC3)c([N+](=O)[O-])c2)c(C)c1", "activity change": "inconclusive: -44.5%"}, {"smiles": "COc1cc(OC)cc(C(=O)NCC(=O)OCC(=O)/C=C2/N(C)c3ccccc3C2(C)C)c1", "activity change": "active: -60.3%"}, {"smiles": "COc1ccccc1CNC(=O)CCN1C(=O)COc2ccc(C)cc21", "activity change": "inconclusive: -45.2%"}, {"smiles": "CCOC(=O)C1=C(C)NC(C)=C(C(=O)OCC)C1/C=C/c1ccccc1", "activity change": "active: -55.1%"}, {"smiles": "CCOC(=O)c1cnc2ccc(OC)cc2c1Nc1ccc(N2CCN(C)CC2)cc1", "activity change": "inactive: -24.2%"}, {"smiles": "C/C=C1\\COC(C(=O)NCc2cccc(OC)c2OC)(C(F)(F)F)C=C1C=C1CCCCC1", "note": "(centres undefined)", "activity change": "inconclusive: -39%"}, {"smiles": "CCn1c(SCC(=O)Nc2ccccc2-c2ccccc2)nnc1-c1ccoc1C", "activity change": "inconclusive: -38.6%"}, {"smiles": "COc1ccc2[nH]cc(CCCN3C(=O)c4ccccc4C3=O)c2c1", "activity change": "inconclusive: -34%"}, {"smiles": "CCN1C(=O)[C@H]2[C@@H](c3ccc(C)cc3)N[C@]3(CCCN(Cc4ccc(C)cc4)C3=O)[C@H]2C1=O", "activity change": "inconclusive: -30.6%"}, {"smiles": "COc1ccc(/C=C/C(=O)NCC2COc3ccccc3O2)c(OC)c1", "note": "(centres undefined)", "activity change": "active: -59.4%"}, {"smiles": "CCN(CC)S(=O)(=O)c1cc(NC(=O)C(C)N2CCc3ccccc32)ccc1C", "note": "(centres undefined)", "activity change": "inconclusive: -47.5%"}, {"smiles": "NCCCC(=O)N1c2ccccc2Sc2ccc(Cl)cc21", "activity change": "inconclusive: -34.7%"}, {"smiles": "C[C@@]12C(=O)Nc3ccccc3C(=O)N1[C@H]1c3cc(Cl)ccc3OC[C@@H]1[C@@H]2c1ccccc1", "activity change": "inconclusive: -49.2%"}, {"smiles": "Cc1c(OCC(=O)C(C)(C)C)ccc2c(-c3ccccc3)cc(=O)oc12", "activity change": "active: -63.5%"}, {"smiles": "COc1ccc(/C(N)=N/OC(=O)CSc2ccccc2)cc1", "activity change": "active: -60%"}, {"smiles": "CCN(CC)C(=O)CSc1nc2ccccc2c(=O)n1-c1cccc(OC)c1", "activity change": "inconclusive: -43.7%"}, {"smiles": "C[C@@H]1CCCCO[C@H](CN(C)S(=O)(=O)c2cccs2)[C@@H](C)CN([C@H](C)CO)C(=O)c2cc(NC(=O)Nc3ccc4c(c3)OCO4)ccc2O1", "activity change": "inconclusive: -31.4%"}, {"smiles": "Cn1c(SCC(=O)NC2CCS(=O)(=O)C2)nc2ccccc21", "note": "(centres undefined)", "activity change": "inconclusive: -30%"}, {"smiles": "CCOC(=O)c1cnc2ccc(C)cc2c1Nc1ccc(N2CCOCC2)cc1", "activity change": "inconclusive: -45.9%"}, {"smiles": "COC(=O)c1cc2ccc(OC)cc2c2cc(OC)c(OC)cc12", "activity change": "active: -61%"}, {"smiles": "S=C(Nc1cc(Cl)cc(Cl)c1)NC1CCN(Cc2ccccc2)CC1", "activity change": "active: -65.6%"}, {"smiles": "CC1CN(c2ccc([N+](=O)[O-])c(NCCOc3ccccc3)c2)CCN1", "note": "(centres undefined)", "activity change": "active: -61.6%"}, {"smiles": "CCOC(=O)/C(=N/Nc1ccccc1)Sc1nnc(CCc2ccccc2)n1-c1ccccc1", "activity change": "active: -73.3%"}, {"smiles": "O=C(Nc1cccc2ncccc12)c1ccc([N+](=O)[O-])o1", "activity change": "active: -93.5%"}, {"smiles": "N#Cc1ccccc1OCCCN1CCC(C(O)(c2ccccc2)c2ccccc2)CC1", "activity change": "inconclusive: -34.8%"}, {"smiles": "CCn1cc(/C=C(\\NC(=O)c2ccccc2)C(=O)N2CCOCC2)c2ccccc21", "activity change": "inactive: 52.2%"}, {"smiles": "Cc1occc1C(=O)N1CCCC(CO)(Cc2ccc(F)cc2F)C1", "note": "(centres undefined)", "activity change": "inactive: -12.5%"}, {"smiles": "O=C1N[C@H](Cc2ccccc2)COC(=O)[C@H](Cc2ccc(F)cc2)C/C=C\\C[C@@H]1CC(=O)N(CCO)Cc1ccccc1", "activity change": "inconclusive: -44%"}, {"smiles": "CC1(C)CNC(=O)c2sc(NC(=O)c3ccccc3)nc2C1", "activity change": "inactive: 2.65%"}, {"smiles": "CN1CCN(c2nc(-c3cccnc3)nc3ccccc23)CC1", "activity change": "inconclusive: -30.6%"}]}]}
